Assay results taken from PubChem BioAssay AID1030 (National Center for Advancing Translational Sciences (NCATS), 2008).
Among all 220,000 compounds or so, about 16,000 (7.3%) were called active. Inconclusive results, whose numbers are uncertain, are shown with a selection of clear calls. Calls come from the whole dose curve; as a rule, active = well fitted inhibition curve with a large enough effect (not every such curve was filed as active); inconclusive = small, poorly fitted or top-dose-only effect, or another doubt; inactive = no such curve, though single readings can be large or run the other way. No potency is given beside an inconclusive call; the fits are too rough.

Each compound was assayed against Aldehyde dehydrogenase 1A1 (Homo sapiens) (UniProt P00352) (assay: qHTS Assay for Inhibitors of Aldehyde Dehydrogenase 1 (ALDH1A1)). Conditions: Purified ALDH1A1, NADH fluorescence, propionaldehyde substrate; series mostly up to 75.3 µM.
Potency is the fitted concentration of half-maximal effect; tags give direction and shape of the fitted curve.
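Throughout, for activity, negative = inhibition: plate controls were no enzyme wells and a reference inhibitor.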

Chain of UniProt P00352 (P00352 whole entry, looked up): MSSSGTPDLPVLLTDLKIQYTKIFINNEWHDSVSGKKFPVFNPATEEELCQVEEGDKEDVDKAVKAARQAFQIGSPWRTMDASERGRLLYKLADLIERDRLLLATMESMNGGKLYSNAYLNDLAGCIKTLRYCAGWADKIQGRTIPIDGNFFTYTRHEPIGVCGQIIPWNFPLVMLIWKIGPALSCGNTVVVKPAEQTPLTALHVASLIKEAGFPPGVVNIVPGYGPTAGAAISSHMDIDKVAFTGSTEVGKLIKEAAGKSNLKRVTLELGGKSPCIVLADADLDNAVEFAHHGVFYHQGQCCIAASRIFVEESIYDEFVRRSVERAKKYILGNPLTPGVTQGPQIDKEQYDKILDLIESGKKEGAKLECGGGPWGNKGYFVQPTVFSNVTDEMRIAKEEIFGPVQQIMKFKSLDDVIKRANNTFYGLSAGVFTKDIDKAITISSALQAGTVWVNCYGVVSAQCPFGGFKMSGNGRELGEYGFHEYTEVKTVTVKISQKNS

SMILES | Potency | activity, negative = inhibition
Cc1ccc(OCCC(=O)NCCc2ccc(S(N)(=O)=O)cc2)cc1 | inactive | –
O=C(/C=C/c1cn(-c2ccccc2)nc1-c1cccs1)NCCN1CCOCC1 | inconclusive [inhibitor, partial curve] | –
Cc1cc(N2CCOCC2)ccc1/C=C1\SC(=O)N(C(C)C)C1=O | active: 5.01 µM | –
Cc1cccc2[nH]c3c(N4CC=C(c5ccc(F)cc5)CC4)ncnc3c12 | inactive | –
COC(=O)CN(C(=S)Nc1ccc(F)cc1)C1CC(=O)N(c2ccccc2)C1=O (configuration not stated) | inconclusive [inhibitor, partial curve] | –
COC(=O)c1ccc(-n2c(C)cc(C(=O)COC(=O)CC3Sc4ccccc4NC3=O)c2C)cc1 (configuration not stated) | inconclusive [inhibitor, partial curve] | –
Cc1cc2nc(CSc3ccccc3)cc(=O)n2[nH]1 | inactive | –
CSCCC(NC(=O)c1ccc([N+](=O)[O-])cc1Cl)C(=O)OCC(=O)NC1CCCC(C)C1C (configuration not stated) | inconclusive [inhibitor, partial curve] | –
CCOC(=O)C1(CCCc2ccccc2)CCN(C(=O)c2ccoc2)CC1 | active: 3.98 µM | –
CC(C)CN(C(=O)COC(=O)Cn1cnc2ccccc2c1=O)C1CCS(=O)(=O)C1 (configuration not stated) | inconclusive [inhibitor, partial curve] | –
CC(C)(C)N1C(=O)[C@H]2[C@@H]3[C@H](O)C=CC(=O)[C@H]3CC[C@H]2C1=O | – | inactive: 8.64% [at 13.5 µM]
O=C(CSC(=S)N1CCSCC1)c1ccc(Cl)cc1 | inconclusive [inhibitor, single point] | –
CCc1cccc(C)c1NC(=O)CNCc1ccccc1 | inconclusive [inhibitor, single point] | –
Cc1onc(-c2ccccc2)c1C(=O)NNC(=S)NC(=O)c1ccc(F)cc1 | inconclusive [inhibitor, single point] | –
Cc1ccc(C(=O)O)cc1NC(=S)NC(=O)c1ccc([N+](=O)[O-])cc1Cl | inconclusive [inhibitor, single point] | –
Cc1ccc(S(=O)(=O)CC(O)COc2ccc(C#N)cc2)cc1 (configuration not stated) | inconclusive [inhibitor, single point] | –
CC(=O)N/C(=C\c1ccc(F)cc1)C(=O)N(C)C | inactive | –
CCOC(=O)C1CCN(CCC(=O)Nc2ccc(C)cc2)CC1 | inactive | –
CC1(C)Cc2c(oc3ncn4ncnc4c23)CO1 | inactive | –
CCOC(=O)C1(CCOc2ccccc2)CCN(Cc2ccc(C)o2)CC1 | active: 17.8 µM | –
CCC1=C2CC[C@H]3C(=O)N(C)C(=O)[C@H]3[C@H]2[C@@]2(Cc3ccccc3)C(=NCC3CC3)OC(=O)N2C1=O | inconclusive [inhibitor, single point] | –
CCOC(=O)N1CCC(N(CCN(C)C)C(=S)Nc2ccc(Oc3ccccc3)cc2)CC1 | inconclusive [inhibitor, partial curve] | –
Cc1ccc(CCP(=O)(O)CN2CCCCC2)cn1 | inactive | –
COC(=O)c1ccc(/C=N/OCC(=O)Nc2cc(F)ccc2F)cc1 | inactive | –

SMILES | Potency | activity, negative = inhibition
CC(=O)Nc1ccc(Cc2ccc3[nH]c(=O)cc(C)c3c2)cc1 | inactive | –
C/C(=N\NC(=O)CSc1ncccn1)c1ccc2c(c1)OCCO2 | inconclusive [inhibitor, partial curve] | –
Cc1ccc(NC(=S)NNC(=O)c2ccccc2O)c(C)c1 | inconclusive [inhibitor, partial curve] | –
CC(=O)N/C(=C\c1ccc(C)cc1)C(=O)O | inactive | –
CCOc1ccc(C(C)=O)cc1CC(C(N)=O)C(N)=O | inactive | –
O=S1(=O)CCN2C=C(Br)C=C(Br)C2=N1 | inconclusive [inhibitor, partial curve] | –
CCN(CC)c1ccc(/C=C(\C#N)c2nc(-c3cccs3)c(NC(C)=O)s2)cc1 | inconclusive [inhibitor, partial curve] | –
COc1ccc(C(=O)NCCSC2CCCCC2)cc1 | active: 3.55 µM | –
CC1CCCC(C)N1C(=O)CSc1nc2ccccc2s1 (configuration not stated) | active: 22.4 µM | –
CN(C)/C=N/c1nc2nccc(-c3cccs3)n2n1 | inconclusive [inhibitor, partial curve] | –
CN1CCc2c(sc3c2C(=O)NC(c2ccco2)N3)C1 (configuration not stated) | inconclusive [inhibitor, partial curve] | –
COc1ccc(-n2c(=O)cnc3cnc(OC)nc32)cc1 | active: 22.4 µM | –
COC(=O)COc1ccc(NS(=O)(=O)c2cccc([N+](=O)[O-])c2)cc1 | inconclusive [inhibitor, partial curve] | –
CCOC(=O)C1CCN(C(=O)COc2ccc(Br)cc2Br)CC1 | inactive | –
O=C1CSC(c2cn(-c3ccccc3)nc2-c2cc3ccccc3oc2=O)N1Cc1ccccc1 (configuration not stated) | inconclusive [inhibitor, single point] | –
O=C1c2ccccc2NC(c2ccncc2)N1c1ccccn1 (configuration not stated) | inconclusive [inhibitor, partial curve] | –
C=CCn1c(N2CCCCCC2)nc2c1c(=O)[nH]c(=O)n2C | inconclusive [inhibitor, partial curve] | –
O=C(c1cccc(S(=O)(=O)NCc2ccccc2)c1)N1CCN(Cc2ccccc2)CC1 | active: 17.8 µM | –
CC(Sc1nc2ccccc2s1)C(=O)NCc1ccc2c(c1)OCO2 (configuration not stated) | inconclusive [inhibitor, single point] | –
Cc1ccc(/C=C/C(=O)OC(C)C(=O)Nc2ncc(Cl)cc2Cl)o1 (configuration not stated) | inconclusive [inhibitor, single point] | –
CN1C(=O)c2ccccc2N(C)C1c1cccs1 (configuration not stated) | inconclusive [inhibitor, single point] | –
CCCN(CC1CC1)C(=O)CSc1ncnc2sccc12 | inconclusive [inhibitor, single point] | –
CC(=O)c1c(C)n(C)c2ccc(OC(=O)c3ccc([N+](=O)[O-])cc3)cc12 | inconclusive [inhibitor, single point] | –
